The source gives no read counts; variants with many changes may rest on few reads.
B1: CPEB3 Ribozyme (parent)
chain: UAACAGGGGGCCACAGCAGAAGCGUUCACGUCGCAGCCCCUGUCAGAUUCUGGUGAAUCUGCGAAUUCUGCUGUAUAUCUC

Variants of: B1
Test: self-cleavage, relative activity (ratio to wild type); higher = more cleavage; in vitro, sequencing
Summary of the method: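 Barcoded CPEB3 ribozyme mutants, produced by rounds of error-prone PCR, self-cleaved while being transcribed with T7 RNA polymerase for 5 hours at 37°C and during a subsequent 15 min DNase I step before EDTA was added. Sequencing of template-switched cDNA on Illumina gave cleaved and total reads, and DNA sequencing assigned barcodes to variants. Each variant's relative activity is its cleaved/total read fraction divided by the unmutated ribozyme's fraction, averaged across three batches. A variant needed a minimum of 5 reads.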
U25C U49C U78C showed a self-cleavage of 0.1. In the case of U25C U49C U80A, the self-cleavage is reported as 0.15. With U25C U49G U60C U69A the self-cleavage was 0.09. With U25C U51A A57G U58C G70A the self-cleavage was 0.12. U25C U51A U54C U74C showed a self-cleavage of 0.19. U25C U51C A56G showed a self-cleavage of 0.11. Variant U25C U51C A56G A57G has a self-cleavage of 0.36. Work on U25C U51C A56G U76A yielded a self-cleavage of 0.12. Work on U25C U51C A64C U66A U72C U74C yielded a self-cleavage of 0.2. For U25C U51C G53A, the self-cleavage was 0.27. With U25C U51C G53U U54A the self-cleavage was 0.23. In the case of U25C U51C U58C U80C, the self-cleavage is reported as 0.05. Work on U25C U51C U60C A77G yielded a self-cleavage of 0.36. Work on U25C U54A U58G G70A A77G yielded a self-cleavage of 0.04. In the case of U25C U54A U72A, the self-cleavage is reported as 0.18. Variant U25C U54A U72G U78C U80C has a self-cleavage of 0.17. Work on U25C U54A U72G U80C yielded a self-cleavage of 0.15. Work on U25C U54C A56U U60C A64G A77U yielded a self-cleavage of 0.08. U25C U54C A65C U67C gave a self-cleavage of 0.16. For U25C U54C A65G U80C, the self-cleavage was 0.16. For U25C U54C G55U, the self-cleavage was 0.22. In the case of U25C U54C U60C, the self-cleavage is reported as 0.19. For U25C U54C U67C, the self-cleavage was 0.07. U25C U54C U69C gave a self-cleavage of 0.39. For U25C U58A A64G, the self-cleavage was 0.08. For U25C U58C U60A A75G, the self-cleavage was 0.34. Variant U25C U58C U60C A65G has a self-cleavage of 0.07. U25C U60A A64G showed a self-cleavage of 0.29. In the case of U25C U60A A64G U72A, the self-cleavage is reported as 0.03. With U25C U60A A75G the self-cleavage was 0.11. U25C U60A U66C showed a self-cleavage of 0.09. Work on U25C U60A U69A yielded a self-cleavage of 0.07. For U25C U60A U80A, the self-cleavage was 0.18. With U25C U60C A64G the self-cleavage was 0.22. U25C U60C C71U showed a self-cleavage of 0.14. U25C U60C U67C U80A showed a self-cleavage of 0.13. For U25C U60C U69C, the self-cleavage was 0.25. U25C U60C U76C showed a self-cleavage of 0.37. Work on U25C U60G A77G yielded a self-cleavage of 0.15. For U25C U66C U67G, the self-cleavage was 0.21. Variant U25C U66C U69A has a self-cleavage of 0.14. For U25C U67A U72A U80C, the self-cleavage was 0.13. Work on U25C U67C C71G yielded a self-cleavage of 0.14. Work on U25C U67C G70A yielded a self-cleavage of 0.38. U25C U67C U69A gave a self-cleavage of 0.47. U25C U67G U80C showed a self-cleavage of 0.15. In the case of U25C U69C U72A, the self-cleavage is reported as 0.12. For U25C U69C U72C U74C, the self-cleavage was 0.11. U25C U69C U74C showed a self-cleavage of 0.19. Variant U25C U69C U78C has a self-cleavage of 0.22. Variant U25C U72C U74A A77G has a self-cleavage of 0.33. Variant U25C U76C A77U has a self-cleavage of 0.25. U25G A28G A45G gave a self-cleavage of 0.07. In the case of U25G A28G A65G U76A, the self-cleavage is reported as 0.08. In the case of U25G A28G U31C, the self-cleavage is reported as 0.31. With U25G A28G U74C U80A the self-cleavage was 0.1. In the case of U25G A35G A64U, the self-cleavage is reported as 0.26. With U25G A45G A56G U74A the self-cleavage was 0.32. Work on U25G A45G U60C U67C yielded a self-cleavage of 0.1. With U25G A56G A57G the self-cleavage was 0.26. Variant U25G A65G U66G has a self-cleavage of 0.08. Work on U25G A65G U72C yielded a self-cleavage of 0.09. With U25G C29U U48C A65G the self-cleavage was 0.3. For U25G C37A U54G U66C, the self-cleavage was 0.15. U25G C39A A65G showed a self-cleavage of 0.08. Variant U25G C39U U74C has a self-cleavage of 0.13. For U25G G36A A56G U74A, the self-cleavage was 0.22. Variant U25G G42U A64G has a self-cleavage of 0.25. Work on U25G G63C A64C U80C yielded a self-cleavage of 0.08. With U25G U26A U43C U76A A77U the self-cleavage was 0.06. Work on U25G U26C U74C U78C yielded a self-cleavage of 0.11. In the case of U25G U31A G33A U41A A64G A77U, the self-cleavage is reported as 0.09. Work on U25G U31C A47U yielded a self-cleavage of 0.06. Variant U25G U41A U48C A57G U58G A64G has a self-cleavage of 0.02. For U25G U41A U54G, the self-cleavage was 0.42. U25G U41C A65G showed a self-cleavage of 0.37. In the case of U25G U41C U49C U76A A77G, the self-cleavage is reported as 0.11. Variant U25G U43C A57G U72C has a self-cleavage of 0.25. U25G U43G U69A C71U showed a self-cleavage of 0.19. Variant U25G U48C A57U U60A has a self-cleavage of 0.08. For U25G U51C A75U, the self-cleavage was 0.32. Work on U25G U54C U60C yielded a self-cleavage of 0.2. With U25G U67A U78C the self-cleavage was 0.2. In the case of U26A A28C A57G U78C, the self-cleavage is reported as 0.33. In the case of U26A A28C U76A U80C, the self-cleavage is reported as 0.46. U26A A28G A47G showed a self-cleavage of 0.48. Work on U26A A28G A57G yielded a self-cleavage of 0.13. U26A A28G A64U gave a self-cleavage of 0.09. Work on U26A A28G C34G yielded a self-cleavage of 0.29. In the case of U26A A28G C34U, the self-cleavage is reported as 0.1. U26A A28G C37U A64G gave a self-cleavage of 0.14. For U26A A28G G33A U51C U72G, the self-cleavage was 0.14. In the case of U26A A28G U41C U78C, the self-cleavage is reported as 0.11. For U26A A28G U54C, the self-cleavage was 0.38. In the case of U26A A28U U31C U41G A64U U67C U74C, the self-cleavage is reported as 0.06. For U26A A28U U43C A64U A65G U72C, the self-cleavage was 0.14. In the case of U26A A28U U72C, the self-cleavage is reported as 0.88. Work on U26A A35C A56G yielded a self-cleavage of 0.5. U26A A35G A56G U67C showed a self-cleavage of 0.27. U26A A35G C38U A75U gave a self-cleavage of 1.31. For U26A A35G U41C U54C U60A A77G, the self-cleavage was 0.84. With U26A A35G U43C the self-cleavage was 0.49. U26A A35G U43C U49C A57G U69C C71A showed a self-cleavage of 0.05. For U26A A35G U48C U78C, the self-cleavage was 1.17. U26A A35G U49C A65G showed a self-cleavage of 0.35. For U26A A35G U58C, the self-cleavage was 1.19. Work on U26A A35G U60C U72C yielded a self-cleavage of 1.11. Variant U26A A35G U72A has a self-cleavage of 0.85. In the case of U26A A35G U72C, the self-cleavage is reported as 1.29. U26A A35U G52A A77G gave a self-cleavage of 0.37. In the case of U26A A35U U41C A77U, the self-cleavage is reported as 0.22. U26A A35U U43C U48A U49C U76C gave a self-cleavage of 0.06. U26A A35U U43C U49C C59G gave a self-cleavage of 0.06. U26A A35U U74A U80A gave a self-cleavage of 1.02. U26A A45C U72C showed a self-cleavage of 0.18. U26A A45G A64G gave a self-cleavage of 0.51. U26A A45G C62U gave a self-cleavage of 0.26. Work on U26A A45G U49A yielded a self-cleavage of 0.25. With U26A A45U G63A U67A U80A the self-cleavage was 0.15. For U26A A45U U49C, the self-cleavage was 0.26. For U26A A47G A57G U58C, the self-cleavage was 0.93. U26A A47G C50G A57G showed a self-cleavage of 0.09. U26A A47G C59U A64G showed a self-cleavage of 0.41. Variant U26A A47G G61A has a self-cleavage of 0.5. U26A A47G G61A U67C gave a self-cleavage of 0.19. In the case of U26A A47G U51A, the self-cleavage is reported as 0.68. For U26A A47G U54C, the self-cleavage was 0.72. U26A A47G U60C gave a self-cleavage of 0.51. U26A A47G U69A showed a self-cleavage of 0.5. U26A A47G U76C gave a self-cleavage of 0.51. U26A A56C U67C gave a self-cleavage of 0.15. U26A A56G C62G C71U U74C showed a self-cleavage of 0.12. For U26A A56G U69A, the self-cleavage was 0.41. U26A A56U A64G showed a self-cleavage of 0.43. With U26A A56U U60C U72C the self-cleavage was 0.2. For U26A A57U U74A, the self-cleavage was 0.56. For U26A A64G A65G U74C, the self-cleavage was 0.05. U26A A64U U72C gave a self-cleavage of 0.25. In the case of U26A A65G U69A, the self-cleavage is reported as 0.32. U26A A65G U69A U78C gave a self-cleavage of 0.16. For U26A A65G U80C, the self-cleavage was 0.43. Variant U26A A65U U67A has a self-cleavage of 0.25. For U26A A77G U78C, the self-cleavage was 0.47. U26A C27G U43C C59A U72A gave a self-cleavage of 0.08. For U26A C27G U51C A57G U78C, the self-cleavage was 0.3. U26A C27U U49C C59U U60C A65G gave a self-cleavage of 0.13. U26A C29A U43C showed a self-cleavage of 0.3. U26A C29U U41A U60A showed a self-cleavage of 0.14. With U26A C29U U51C U60A U72C the self-cleavage was 0.16. In the case of U26A C32A A35G U43C U48C U49G U66C, the self-cleavage is reported as 0.06. With U26A C32A U41C U54C A56G A65G U80C the self-cleavage was 0.06. For U26A C32A U60C, the self-cleavage was 0.1. For U26A C32U A57G A64G A75G U80C, the self-cleavage was 0.02. In the case of U26A C32U U72C U76A U80C, the self-cleavage is reported as 0.08. Variant U26A C34G A65U U78C has a self-cleavage of 0.11. U26A C34U U69A showed a self-cleavage of 0.2. With U26A C37U U41C U43C the self-cleavage was 0.11. With U26A C37U U60C the self-cleavage was 0.28. Work on U26A C38U C59U U74A yielded a self-cleavage of 0.75. U26A C38U U74A showed a self-cleavage of 1.15. For U26A C39A U58C U67A U80C, the self-cleavage was 0.17. U26A C40A G55U A57G U69C U80C showed a self-cleavage of 0.06. For U26A C40A G55U A64U U69C, the self-cleavage was 0.05. Variant U26A C40U A45U has a self-cleavage of 0. In the case of U26A C40U A57G U72A U80C, the self-cleavage is reported as 0.33. In the case of U26A C40U U48C U49C U54G A65G U72A, the self-cleavage is reported as 0.05. Work on U26A C50A U51C G52A yielded a self-cleavage of 0.81.
